{"source": "the supplement of paper PMC8728848", "experiment_in_all_cases": "glycan array binding signal (z-score within array); higher = stronger binding", "conditions_in_all_cases": "glycan notation: IUPAC condensed, linker removed", "key": {"[1]": {"target": "Fuc(a1-2)Gal", "method_in_brief": "(§1)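 Glycan array data came from 3228 arrays in the Consortium for Functional Glycomics database, and only arrays with an available protein sequence were kept. Glycan names were put into IUPAC-condensed notation, and columns mapping to the same glycan were averaged. The binding signal is a within-array Z-score, averaged across arrays of one protein sequence run at different concentrations or buffers and across linkers. A negative Z-score can be read as non-binding.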"}, "[2]": {"target": "Fuc(a1-2)Gal(b1-3)GalNAc", "method_in_brief": "as §1"}, "[3]": {"target": "Fuc(a1-2)Gal(b1-3)GalNAc(b1-3)Gal", "method_in_brief": "as §1"}, "[4]": {"target": "Fuc(a1-2)Gal(b1-3)GalNAc(b1-3)Gal(a1-4)Gal(b1-4)Glc", "method_in_brief": "as §1"}, "[5]": {"target": "Fuc(a1-2)Gal(b1-3)GalNAc(b1-4)[Neu5Ac(a2-3)]Gal(b1-4)Glc", "method_in_brief": "as §1"}, "[6]": {"target": "Fuc(a1-2)Gal(b1-3)GlcNAc", "method_in_brief": "as §1"}, "[7]": {"target": "Fuc(a1-2)Gal(b1-3)GlcNAc(b1-3)Gal(b1-4)Glc", "method_in_brief": "as §1"}, "[8]": {"target": "Fuc(a1-2)Gal(b1-3)[Fuc(a1-4)]GlcNAc", "method_in_brief": "as §1"}, "[9]": {"target": "Fuc(a1-2)Gal(b1-4)Glc", "method_in_brief": "as §1"}, "[10]": {"target": "Fuc(a1-2)Gal(b1-4)GlcNAc", "method_in_brief": "as §1"}, "[11]": {"target": "Fuc(a1-2)Gal(b1-4)GlcNAc(b1-3)Gal(b1-4)GlcNAc", "method_in_brief": "as §1"}, "[12]": {"target": "Fuc(a1-2)Gal(b1-4)GlcNAc(b1-3)Gal(b1-4)GlcNAc(b1-3)Gal(b1-4)GlcNAc", "method_in_brief": "as §1"}, "[13]": {"target": "Fuc(a1-2)Gal(b1-4)[Fuc(a1-3)]GlcNAc", "method_in_brief": "as §1"}, "[14]": {"target": "Fuc(a1-2)Gal(b1-4)[Fuc(a1-3)]GlcNAc(b1-3)Gal(b1-4)[Fuc(a1-3)]GlcNAc", "method_in_brief": "as §1"}, "[15]": {"target": "Fuc(a1-2)Gal(b1-4)[Fuc(a1-3)]GlcNAc(b1-3)Gal(b1-4)[Fuc(a1-3)]GlcNAc(b1-3)Gal(b1-4)[Fuc(a1-3)]GlcNAc", "method_in_brief": "as §1"}, "[16]": {"target": "Fuc(a1-2)GlcNAc", "method_in_brief": "as §1"}, "[17]": {"target": "Fuc(a1-2)[Gal(a1-3)]Gal", "method_in_brief": "as §1"}, "[18]": {"target": "Fuc(a1-2)[Gal(a1-3)]Gal(b1-3)GlcNAc", "method_in_brief": "as §1"}, "[19]": {"target": "Fuc(a1-2)[Gal(a1-3)]Gal(b1-4)Glc", "method_in_brief": "as §1"}, "[20]": {"target": "Fuc(a1-2)[Gal(a1-3)]Gal(b1-4)GlcNAc", "method_in_brief": "as §1"}, "[21]": {"target": "Fuc(a1-2)[Gal(a1-3)]Gal(b1-4)[Fuc(a1-3)]GlcNAc", "method_in_brief": "as §1"}, "[22]": {"target": "Fuc(a1-2)[Gal(a1-4)]Gal(b1-4)GlcNAc", "method_in_brief": "as §1"}, "[23]": {"target": "Fuc(a1-2)[GalNAc(a1-3)]Gal", "method_in_brief": "as §1"}, "[24]": {"target": "Fuc(a1-2)[GalNAc(a1-3)]Gal(b1-3)GlcNAc", "method_in_brief": "as §1"}, "[25]": {"target": "Fuc(a1-2)[GalNAc(a1-3)]Gal(b1-4)Glc", "method_in_brief": "as §1"}, "[26]": {"target": "Fuc(a1-2)[GalNAc(a1-3)]Gal(b1-4)GlcNAc", "method_in_brief": "as §1"}, "[27]": {"target": "Fuc(a1-2)[GalNAc(a1-3)]Gal(b1-4)[Fuc(a1-3)]GlcNAc", "method_in_brief": "as §1"}, "[28]": {"target": "Fuc(a1-2)[GalNAc(a1-4)]Gal(b1-4)GlcNAc", "method_in_brief": "as §1"}, "[29]": {"target": "Fuc(a1-2)[GalNAc(b1-3)]Gal", "method_in_brief": "as §1"}, "[30]": {"target": "Fuc(a1-3)GlcNAc", "method_in_brief": "as §1"}, "[31]": {"target": "Fuc(a1-3)[Gal(b1-4)]GlcNAc", "method_in_brief": "as §1"}, "[32]": {"target": "Fuc(a1-3)[Gal(b1-4)]GlcNAc(b1-4)Gal(b1-4)[Fuc(a1-3)]GlcNAc", "method_in_brief": "as §1"}, "[33]": {"target": "Fuc(a1-3)[Gal(b1-4)]GlcNAc(b1-4)Gal(b1-4)[Fuc(a1-3)]GlcNAc(b1-4)Gal(b1-4)[Fuc(a1-3)]GlcNAc", "method_in_brief": "as §1"}, "[34]": {"target": "Fuc(a1-3)[Gal3S(b1-4)]GlcNAc", "method_in_brief": "as §1"}, "[35]": {"target": "Fuc(a1-3)[GalNAc(b1-4)]GlcNAc", "method_in_brief": "as §1"}, "[36]": {"target": "Fuc(a1-4)GlcNAc", "method_in_brief": "as §1"}, "[37]": {"target": "Fuc(b1-3)GlcNAc", "method_in_brief": "as §1"}, "[38]": {"target": "Gal(a1-2)Gal", "method_in_brief": "as §1"}, "[39]": {"target": "Gal(a1-3)Gal", "method_in_brief": "as §1"}, "[40]": {"target": "Gal(a1-3)Gal(b1-3)GlcNAc", "method_in_brief": "as §1"}, "[41]": {"target": "Gal(a1-3)Gal(b1-4)Glc", "method_in_brief": "as §1"}, "[42]": {"target": "Gal(a1-3)Gal(b1-4)GlcNAc", "method_in_brief": "as §1"}, "[43]": {"target": "Gal(a1-3)Gal(b1-4)[Fuc(a1-3)]GlcNAc", "method_in_brief": "as §1"}, "[44]": {"target": "Gal(a1-3)GalNAc", "method_in_brief": "as §1"}, "[45]": {"target": "Gal(a1-3)[Gal(a1-4)]Gal(b1-4)GlcNAc", "method_in_brief": "as §1"}}, "note": "This is one part of the list.", "data": [{"binder": "F4 (Escherichia coli), A0A6L9DDF0 (protein) MKKTLIALALAASAVSGMAHAWTSGDFNGTVDIGGSIDATNYRQKWEWEVGTGLNGFYNALSELTNNDTKLTITVTGNKPILLGRTKEAFVTPTAGGWGGIPQIAFTDYKGAPVELKNPDGETNKGLAYFVLPMKNADGTEAGSVRVNASYAGAVVEKTSDSSAKLFSAYAGEVIRIFNGGLPVNVTQSELQSGVAAADRTALFGSLGKADLVAQFQAVIPGATVTDGTSSEHCTMRLLASAAYALGIADGQTIEATFNQAVTTSTQWSAPLNVAITYY", "values": [{"measurement": "glycan array binding signal (z-score)", "setting": "[1]", "value": -0.076}, {"measurement": "glycan array binding signal (z-score)", "setting": "[2]", "value": -0.145}, {"measurement": "glycan array binding signal (z-score)", "setting": "[3]", "value": -0.184}, {"measurement": "glycan array binding signal (z-score)", "setting": "[4]", "value": -0.028}, {"measurement": "glycan array binding signal (z-score)", "setting": "[5]", "value": -0.264}, {"measurement": "glycan array binding signal (z-score)", "setting": "[6]", "value": -0.18}, {"measurement": "glycan array binding signal (z-score)", "setting": "[7]", "value": -0.147}, {"measurement": "glycan array binding signal (z-score)", "setting": "[8]", "value": 1.02}, {"measurement": "glycan array binding signal (z-score)", "setting": "[9]", "value": -0.177}, {"measurement": "glycan array binding signal (z-score)", "setting": "[10]", "value": -0.118}, {"measurement": "glycan array binding signal (z-score)", "setting": "[11]", "value": -0.206}, {"measurement": "glycan array binding signal (z-score)", "setting": "[12]", "value": -0.264}, {"measurement": "glycan array binding signal (z-score)", "setting": "[13]", "value": -0.068}, {"measurement": "glycan array binding signal (z-score)", "setting": "[14]", "value": -0.216}, {"measurement": "glycan array binding signal (z-score)", "setting": "[15]", "value": -0.171}, {"measurement": "glycan array binding signal (z-score)", "setting": "[16]", "value": 0.043}, {"measurement": "glycan array binding signal (z-score)", "setting": "[17]", "value": -0.198}, {"measurement": "glycan array binding signal (z-score)", "setting": "[18]", "value": -0.237}, {"measurement": "glycan array binding signal (z-score)", "setting": "[19]", "value": -0.191}, {"measurement": "glycan array binding signal (z-score)", "setting": "[20]", "value": -0.072}, {"measurement": "glycan array binding signal (z-score)", "setting": "[21]", "value": -0.409}, {"measurement": "glycan array binding signal (z-score)", "setting": "[22]", "value": -0.156}, {"measurement": "glycan array binding signal (z-score)", "setting": "[23]", "value": -0.144}, {"measurement": "glycan array binding signal (z-score)", "setting": "[24]", "value": -0.23}, {"measurement": "glycan array binding signal (z-score)", "setting": "[25]", "value": -0.241}, {"measurement": "glycan array binding signal (z-score)", "setting": "[26]", "value": -0.038}, {"measurement": "glycan array binding signal (z-score)", "setting": "[27]", "value": -0.233}, {"measurement": "glycan array binding signal (z-score)", "setting": "[28]", "value": 0.35}, {"measurement": "glycan array binding signal (z-score)", "setting": "[29]", "value": -0.33}, {"measurement": "glycan array binding signal (z-score)", "setting": "[30]", "value": -0.164}, {"measurement": "glycan array binding signal (z-score)", "setting": "[31]", "value": -0.223}, {"measurement": "glycan array binding signal (z-score)", "setting": "[32]", "value": -0.141}, {"measurement": "glycan array binding signal (z-score)", "setting": "[33]", "value": 0.154}, {"measurement": "glycan array binding signal (z-score)", "setting": "[34]", "value": -0.144}, {"measurement": "glycan array binding signal (z-score)", "setting": "[35]", "value": -0.274}, {"measurement": "glycan array binding signal (z-score)", "setting": "[36]", "value": -0.215}, {"measurement": "glycan array binding signal (z-score)", "setting": "[37]", "value": -0.106}, {"measurement": "glycan array binding signal (z-score)", "setting": "[38]", "value": -0.128}, {"measurement": "glycan array binding signal (z-score)", "setting": "[39]", "value": -0.13}, {"measurement": "glycan array binding signal (z-score)", "setting": "[40]", "value": -0.257}, {"measurement": "glycan array binding signal (z-score)", "setting": "[41]", "value": -0.243}, {"measurement": "glycan array binding signal (z-score)", "setting": "[42]", "value": -0.155}, {"measurement": "glycan array binding signal (z-score)", "setting": "[43]", "value": -0.127}, {"measurement": "glycan array binding signal (z-score)", "setting": "[44]", "value": -0.124}, {"measurement": "glycan array binding signal (z-score)", "setting": "[45]", "value": -0.344}]}]}
